Growth yield data for 37 molecules are collected here from the supplement of paper PMC8007513.

Counter-ions that a name gives are not always drawn. ± gives the standard error. The whole screen tested about 1,300 compounds, of which about 130 (10%) showed an effect of 50% or more. Only a part is listed here, and it is no random draw.

The subject of this assay is Trichoderma virens ATCC 9645. Description: growth yield (OD600) with compound + IPBC relative to untreated control; higher = less growth inhibition. The conditions noted are these: compound concentration: 100 uM, IPBC concentration: 200 ng/ml. The method, boiled down: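 Growth appears as means of duplicate screens, relative to the control containing neither agent. To obtain it, OD600 was read on a BioTek EL800 at 40 h and 72 h. The cultures were 100 μl aliquots in 96-well plates at 30 °C, holding Trichoderma virens ATCC 9645 spores at 15,000 spores ml^−1 in potato dextrose broth, library compounds at 100 μM final, and, in some wells, a biocide at 200 ng ml^−1.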

In the case of `C[C@]12CCC(=O)C=C1C=C[C@@H]1[C@@H]2CC[C@@]2(C)[C@H]1CC[C@@]2(O)CCC(=O)O` [Canrenoic acid potassium salt] + CCCCNC(=O)OCC#CI [3-iodo-2-propynyl butylcarbamate (IPBC)], the growth yield reads like this: (40 h) 85.5 ± 8.9%; (72 h) 90.4 ± 6.1%.

As for `OC(CCN1CCCC1)(c1ccccc1)C1CCCCC1` (centres undefined) [Procyclidine hydrochloride] + CCCCNC(=O)OCC#CI [3-iodo-2-propynyl butylcarbamate (IPBC)], the growth yield is, setting by setting: (40 h) 84.8 ± 2.9%; (72 h) 91.66 ± 0.63%.

Consider `CCCCOc1ccc(C(=O)CCN2CCCCC2)cc1` [Dyclonine hydrochloride] + CCCCNC(=O)OCC#CI [3-iodo-2-propynyl butylcarbamate (IPBC)], for which the growth yield runs as follows: (40 h) 75.4 ± 1.1%; (72 h) 90.8 ± 1.5%.

Take `Cn1nnc2c(C(N)=O)ncn2c1=O` [Temozolomide] + CCCCNC(=O)OCC#CI [3-iodo-2-propynyl butylcarbamate (IPBC)]: the growth yield was 83.5 ± 1.3% (40 h) and 88.5 ± 2.1% (72 h).

For `CC(C)(C)CC(C)(C)c1ccc(OCCOCC[N+](C)(C)Cc2ccccc2)cc1` [Benzethonium chloride] + CCCCNC(=O)OCC#CI [3-iodo-2-propynyl butylcarbamate (IPBC)], the growth yield by setting is: (40 h) 3.18 ± 0.32%; (72 h) 2.52 ± 0.42%.

On to `CC(C)(C)NC(=O)[C@H]1CC[C@H]2[C@@H]3CC[C@H]4NC(=O)C=C[C@]4(C)[C@H]3CC[C@]12C` [Finasteride] + CCCCNC(=O)OCC#CI [3-iodo-2-propynyl butylcarbamate (IPBC)], for which the growth yield is 84.2 ± 7.9% (40 h) and 87.5 ± 6.7% (72 h).

Take `Nc1nc(N)c2nc(-c3ccccc3)c(N)nc2n1` [Triamterene] + CCCCNC(=O)OCC#CI [3-iodo-2-propynyl butylcarbamate (IPBC)]: the growth yield runs as follows: (40 h) 88.31 ± 0.64%; (72 h) 94.7 ± 2.6%.

For `Cc1c(Nc2ncccc2C(=O)O)cccc1C(F)(F)F` [Flunixin meglumine] + CCCCNC(=O)OCC#CI [3-iodo-2-propynyl butylcarbamate (IPBC)], the growth yield was 80.2 ± 7.5% (40 h) and 92.3 ± 5.2% (72 h).

`CC[C@H](c1ccc(O)cc1)[C@@H](CC)c1ccc(O)cc1` [Hexestrol] + CCCCNC(=O)OCC#CI [3-iodo-2-propynyl butylcarbamate (IPBC)]: the growth yield (40 h) worked out at 68.9 ± 5.4% and the growth yield (72 h) came to 88.4 ± 3.9%.

As to `C[C@H](CS)C(=O)N1CCC[C@H]1C(=O)O` [Captopril] + CCCCNC(=O)OCC#CI [3-iodo-2-propynyl butylcarbamate (IPBC)], the growth yield came out at 90.1 ± 1.1% (40 h) and 90.1 ± 1.1% (72 h).

Turning to `CN(Cc1cc(Br)cc(Br)c1N)C1CCCCC1` [Bromhexine hydrochloride] + CCCCNC(=O)OCC#CI [3-iodo-2-propynyl butylcarbamate (IPBC)], the growth yield by setting is: (40 h) 85.5 ± 4.8%; (72 h) 91.1 ± 1.4%.

On to `CC1(C)O[C@@H]2C[C@H]3[C@@H]4C[C@H](F)C5=CC(=O)C=C[C@]5(C)[C@H]4[C@@H](O)C[C@]3(C)[C@]2(C(=O)CO)O1` [Flunisolide] + CCCCNC(=O)OCC#CI [3-iodo-2-propynyl butylcarbamate (IPBC)], for which the growth yield worked out at 97.1 ± 11% (40 h) and 97.5 ± 10% (72 h).

In the case of `NCCc1ccc(O)c(O)c1` [Dopamine hydrochloride] + CCCCNC(=O)OCC#CI [3-iodo-2-propynyl butylcarbamate (IPBC)], the growth yield (40 h) came to 108 ± 2.7% and the growth yield (72 h) is 102 ± 1.5%.

For the molecule `Cc1c(O)cccc1C(=O)N[C@@H](CSc1ccccc1)[C@H](O)CN1C[C@H]2CCCC[C@H]2C[C@H]1C(=O)NC(C)(C)C` [Nelfinavir mesylate] + CCCCNC(=O)OCC#CI [3-iodo-2-propynyl butylcarbamate (IPBC)], the growth yield (40 h) came out at 78.2 ± 2.2% and the growth yield (72 h) came to 92.61 ± 0.1%.

Regarding `CCSc1ccc2c(c1)N(CCCN1CCN(C)CC1)c1ccccc1S2` [Thiethylperazine dimalate] + CCCCNC(=O)OCC#CI [3-iodo-2-propynyl butylcarbamate (IPBC)], the growth yield came out at 4.45 ± 0.32% (40 h) and 3.25 ± 0.1% (72 h).

`CN(C)CCC(c1ccccc1)c1ccccn1` (centres undefined) [Pheniramine maleate] + CCCCNC(=O)OCC#CI [3-iodo-2-propynyl butylcarbamate (IPBC)]: the growth yield is 88.3 ± 1.3% (40 h) and 91.3 ± 1.4% (72 h).

In the case of `CC(=O)OC(C)C[N+](C)(C)C` (centres undefined) [Methacholine chloride] + CCCCNC(=O)OCC#CI [3-iodo-2-propynyl butylcarbamate (IPBC)], the growth yield came to 111 ± 3.8% (40 h) and 105 ± 4.5% (72 h).

For the molecule `CCCCOc1ccc(CC(=O)NO)cc1` [Bufexamac] + CCCCNC(=O)OCC#CI [3-iodo-2-propynyl butylcarbamate (IPBC)], the growth yield by setting is: (40 h) 99.59 ± 0.16%; (72 h) 95.438 ± 1e-14%.

As to `C=CCc1ccccc1OCC(O)CNC(C)C` (centres undefined) [Alprenolol hydrochloride] + CCCCNC(=O)OCC#CI [3-iodo-2-propynyl butylcarbamate (IPBC)], the growth yield is, setting by setting: (40 h) 93.7 ± 12%; (72 h) 97.1 ± 7.8%.

Take `Cc1ccc(O)c([C@H](CCN(C(C)C)C(C)C)c2ccccc2)c1` [Tolterodine tartrate] + CCCCNC(=O)OCC#CI [3-iodo-2-propynyl butylcarbamate (IPBC)]: the growth yield by setting is: (40 h) 85.8 ± 4.1%; (72 h) 90.19 ± 0.42%.

With `O=C(O)c1cc(=O)c2c(OCC(O)COc3cccc4oc(C(=O)O)cc(=O)c34)cccc2o1` [Cromolyn disodium salt] + CCCCNC(=O)OCC#CI [3-iodo-2-propynyl butylcarbamate (IPBC)], the growth yield (40 h) is 107 ± 20% and the growth yield (72 h) amounted to 103 ± 15%.

Take `Clc1ccc(COC(Cn2ccnc2)c2ccc(Cl)cc2Cl)cc1` (centres undefined) [Econazole nitrate] + CCCCNC(=O)OCC#CI [3-iodo-2-propynyl butylcarbamate (IPBC)]: the growth yield was determined as 3.18 ± 0.32% (40 h) and 2.73 ± 0.42% (72 h).

Turning to `Clc1ccccc1C(c1ccccc1)(c1ccccc1)n1ccnc1` [Clotrimazole] + CCCCNC(=O)OCC#CI [3-iodo-2-propynyl butylcarbamate (IPBC)], the growth yield is, setting by setting: (40 h) 5.08 ± 0.32%; (72 h) 3.46 ± 0.1%.

As for `C=CC[N@@+]12CC[C@@]34c5ccccc5N5/C=C6/[C@H]7C[C@H]8[C@@]9(CC[N@@+]8(CC=C)C/C7=C/CO)c7ccccc7N(/C=C(/[C@@H](C[C@@H]31)/C(=C\CO)C2)[C@H]54)[C@@H]69` [Alcuronium chloride] + CCCCNC(=O)OCC#CI [3-iodo-2-propynyl butylcarbamate (IPBC)], the growth yield is, setting by setting: (40 h) 6.83 ± 0.16%; (72 h) 35.4 ± 3.4%.

As to `CCCC(C(=O)OCCN(CC)CC)(c1ccccc1)c1ccccc1` [Proadifen hydrochloride] + CCCCNC(=O)OCC#CI [3-iodo-2-propynyl butylcarbamate (IPBC)], the growth yield by setting is: (40 h) 75 ± 0.95%; (72 h) 97.1 ± 2.7%.

For `O=P(O)(O)C(O)(Cc1cccnc1)P(=O)(O)O` [Risedronic acid monohydrate] + CCCCNC(=O)OCC#CI [3-iodo-2-propynyl butylcarbamate (IPBC)], the growth yield is, setting by setting: (40 h) 88.8 ± 2.7%; (72 h) 91.66 ± 0.42%.

As to `CCN(CC)C(=O)N1CCN(C)CC1` [Diethylcarbamazine citrate] + CCCCNC(=O)OCC#CI [3-iodo-2-propynyl butylcarbamate (IPBC)], the growth yield was 83.4 ± 2.4% (40 h) and 94.1 ± 1.4% (72 h).

On to `CCN(CCCc1ccccc1)CCCc1ccccc1` [Alverine citrate salt] + CCCCNC(=O)OCC#CI [3-iodo-2-propynyl butylcarbamate (IPBC)], for which the growth yield came out at 78.3 ± 0.79% (40 h) and 92.4 ± 0.94% (72 h).

In the case of `CC1=C(C(=O)O)N2C(=O)[C@@H](NC(=O)[C@H](N)c3ccc(O)cc3)[C@H]2SC1` [Cefadroxil] + CCCCNC(=O)OCC#CI [3-iodo-2-propynyl butylcarbamate (IPBC)], the growth yield reads like this: (40 h) 81.5 ± 1.8%; (72 h) 88.5 ± 1.5%.

Turning to `C=CCN1CCCC1CNC(=O)c1cc2nn[nH]c2cc1OC` (centres undefined) [Alizapride hydrochloride] + CCCCNC(=O)OCC#CI [3-iodo-2-propynyl butylcarbamate (IPBC)], the growth yield is, setting by setting: (40 h) 111.5 ± 0.32%; (72 h) 107%.

Regarding `CC(=O)O[C@H]1CC[C@@]2(C)C(=CC[C@@H]3[C@@H]2CC[C@]2(C)C(=O)CC[C@@H]32)C1` [Dehydroisoandosterone 3-acetate] + CCCCNC(=O)OCC#CI [3-iodo-2-propynyl butylcarbamate (IPBC)], the growth yield is, setting by setting: (40 h) 70.5 ± 2.5%; (72 h) 85.7 ± 3%.

With `C=C(NC(=O)C(=C)NC(=O)c1csc(C2=N[C@@H]3c4csc(n4)[C@H]4NC(=O)c5csc(n5)[C@H]([C@](C)(O)[C@@H](C)O)NC(=O)[C@H]5CSC(=N5)/C(=C/C)NC(=O)[C@H]([C@@H](C)O)NC(=O)c5csc(n5)[C@]3(CC2)NC(=O)[C@H](C)NC(=O)C(=C)NC(=O)[C@H](C)NC(=O)[C@H]([C@@H](C)CC)N[C@@H]2C=Cc3c([C@H](C)O)cc(nc3[C@H]2O)C(=O)O[C@@H]4C)n1)C(N)=O` [Thiostrepton] + CCCCNC(=O)OCC#CI [3-iodo-2-propynyl butylcarbamate (IPBC)], the growth yield reads like this: (40 h) 101 ± 2.5%; (72 h) 100 ± 1.6%.

In the case of `Cn1c(=O)c2c(ncn2CC(O)CO)n(C)c1=O` (centres undefined) [Diprophylline] + CCCCNC(=O)OCC#CI [3-iodo-2-propynyl butylcarbamate (IPBC)], the growth yield by setting is: (40 h) 84.82 ± 0.64%; (72 h) 88.3 ± 1.7%.

As to `CN1C[C@H](CNC(=O)OCc2ccccc2)C[C@@H]2c3cccc4c3c(cn4C)C[C@H]21` [Metergoline] + CCCCNC(=O)OCC#CI [3-iodo-2-propynyl butylcarbamate (IPBC)], the growth yield (40 h) is 45.4 ± 15% and the growth yield (72 h) turned out to be 112 ± 9.5%.

In the case of `CNC1(C)C2CCC(C2)C1(C)C` (centres undefined) [Mecamylamine hydrochloride] + CCCCNC(=O)OCC#CI [3-iodo-2-propynyl butylcarbamate (IPBC)], the growth yield runs as follows: (40 h) 102.1 ± 0.79%; (72 h) 99.11 ± 0.1%.

As for `CCC(C)(C)c1ccc(CC(C)CN2C[C@@H](C)O[C@@H](C)C2)cc1` (some centres undefined) [Amorolfine hydrochloride] + CCCCNC(=O)OCC#CI [3-iodo-2-propynyl butylcarbamate (IPBC)], the growth yield reads like this: (40 h) 3.97 ± 0.16%; (72 h) 2.94 ± 0.21%.

Consider `Oc1ccc2c3c1O[C@H]1[C@@H](O)CC[C@@]4(O)[C@@H](C2)N(CC2CCC2)CC[C@]314` [Nalbuphine hydrochloride] + CCCCNC(=O)OCC#CI [3-iodo-2-propynyl butylcarbamate (IPBC)], for which the growth yield (40 h) amounted to 88 ± 5.1% and the growth yield (72 h) turned out to be 93.2 ± 3.5%.
